Data taken from PubChem BioAssay AID1768 (National Center for Advancing Translational Sciences (NCATS), 2009).
Hit rate of the full screen: of about 270,000 compounds, about 620 (0.23%) were called active. Inconclusive means that the source gave no clear call. Such entries were picked first, then a sample of the others. Calls follow the shape of the dose curve; as a rule, active = well fitted inhibition curve with a large enough effect in the polarisation, with a control signal flat (not every such curve was filed as active); inconclusive = small, poorly fitted or top-dose-only effect, or effect the other way, or a change in a side signal; inactive = no such curve, though single readings can be large or run the other way; the % refers to the polarisation. Where the call is inconclusive, the potency comes from a doubtful curve fit. A note “side channel” means that the fit belongs to a control or component signal, not to the main read-out.

target: Menin (Homo sapiens) (UniProt O00255); test: qHTS Assay for Inhibitors Targeting the Menin-MLL Interaction in MLL Related Leukemias: Competition With Texas Red Labeled MLL-derived Mutant Peptide; details: fluorescence polarization; series mostly up to 61.6 µM
Potency is read from the fitted curve at half-maximal effect; tags tell the direction and shape of the fitted curve or compound fluorescence and quenching.

UniProt O00255, sequence (O00255 whole entry, looked up): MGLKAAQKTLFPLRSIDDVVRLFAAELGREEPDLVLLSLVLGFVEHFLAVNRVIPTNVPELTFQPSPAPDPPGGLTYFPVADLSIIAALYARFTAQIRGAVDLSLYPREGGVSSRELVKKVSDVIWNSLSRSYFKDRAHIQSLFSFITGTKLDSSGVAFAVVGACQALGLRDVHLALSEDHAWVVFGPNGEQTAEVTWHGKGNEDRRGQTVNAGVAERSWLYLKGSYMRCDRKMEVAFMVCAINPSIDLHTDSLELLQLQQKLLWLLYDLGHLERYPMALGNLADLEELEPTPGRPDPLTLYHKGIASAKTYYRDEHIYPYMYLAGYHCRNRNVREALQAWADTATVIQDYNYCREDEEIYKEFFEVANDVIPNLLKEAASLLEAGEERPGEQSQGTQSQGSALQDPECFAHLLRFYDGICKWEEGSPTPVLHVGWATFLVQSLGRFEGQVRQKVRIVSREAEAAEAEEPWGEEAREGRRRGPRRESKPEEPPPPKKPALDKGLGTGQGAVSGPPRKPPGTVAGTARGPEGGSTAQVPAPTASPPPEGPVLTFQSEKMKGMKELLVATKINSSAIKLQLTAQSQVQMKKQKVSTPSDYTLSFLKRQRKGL

Potency, inconclusive:
CCn1c(C)c(C)c2cc(C(=O)Nc3cccc(Cl)c3)ccc21 4.47 µM [quencher, side channel, partial curve]
CCOC(=O)CSc1nc2sc(C)c(C)c2c(=O)[nH]1 20 µM [fluorescent, side channel, partial curve]
COc1ccc(CC(=O)Nc2nc(-c3cc(OC)ccc3OC)cs2)cc1 20 µM [quencher, side channel, single point]
COc1cccc(CN2C(=O)C(C)N(C(=O)c3ccccc3)c3ccccc32)c1 (stereo unspecified) 8.91 µM [inhibitor, full curve, poor fit]
COc1ccccc1-c1ocnc1C(=O)N1CCN(C(=O)C(c2ccccc2)c2ccccc2)CC1 39.8 µM [inhibitor, single point]
Cc1noc2ncnc(Oc3ccccc3)c12 39.8 µM [inhibitor, single point]
CCOC(=O)c1c(NC(=O)CSc2nnc(CNc3ccc(F)cc3)o2)sc(C(C)=O)c1C 22.4 µM [quencher, side channel, single point]
CC1CCCN(C(=S)SCC(=O)c2cc(Br)cc(Br)c2O)C1 (stereo unspecified) 12.6 µM [quencher, side channel, partial curve]
O=C(N/N=C1\C(=O)c2cccc3cccc1c23)c1ccc(O)cc1 25.1 µM [quencher, side channel, partial curve]
COc1ccc(OC)c(-n2c(=S)[nH]c3c(sc(=S)n3-c3ccccc3)c2=O)c1 39.8 µM [inhibitor, single point]
COc1ccc(S(=O)(=O)N2CCC(Cc3ccccc3)CC2)cc1C(N)=O 39.8 µM [fluorescent, side channel, single point]
CC(=O)Nc1ccc(OC(=O)c2ccc(Cl)cc2)cc1 25.1 µM [inhibitor, single point]
COc1ccc2nc(NC(=O)C3CCCN(S(=O)(=O)c4cccc5nonc45)C3)sc2c1 (stereo unspecified) 12.6 µM [quencher, side channel, partial curve]
O=C1OCCN1C(=O)[C@H]1[C@H](c2ccc([N+](=O)[O-])cc2)C(c2ccccc2)=NN1c1ccccc1 8.91 µM [quencher, side channel, full curve]
O=C(Nc1ccc(S(=O)(=O)N2CCCCCC2)cc1)c1ccc(Br)o1 31.6 µM [quencher, side channel, single point]
OCCN(Cc1nc(-c2ccc3c(c2)OCO3)no1)Cc1cccs1 28.2 µM [fluorescent, side channel, single point]
C/C(=N\N=C1\NC(=O)C(CC(=O)Nc2ccc(C)c(Cl)c2)S1)C(C)(C)C (stereo unspecified) 17.8 µM [quencher, side channel, partial curve]
O=C(Nc1cccc(Cl)c1)Nc1cccc(Cl)c1 6.31 µM [quencher, side channel, partial curve]
C=C(C)COc1ccc(-c2[nH]ncc2Oc2ccccc2OCC)c(O)c1 0.794 µM [quencher, side channel, full curve]
O=C(O)c1ccc(N2C(=O)CC(SC(=NCc3ccc4c(c3)OCO4)Nc3ccc(F)cc3)C2=O)cc1 (stereo unspecified) 10 µM [quencher, side channel, partial curve]
CCC(C)N1C(=O)N(c2cccc(Cl)c2)C(C)(O)CC1(C)C (stereo unspecified) 25.1 µM [fluorescent, side channel, partial curve]
CCN(CC1CCCO1)C(=O)C1CCN(C2CCN(Cc3ccccc3C)CC2)CC1 (stereo unspecified) 22.4 µM [fluorescent, side channel, partial curve]
CCCCCn1c(=O)[nH]c2cc(C(=O)NCCN(CC)CC)ccc2c1=O 3.16 µM [inhibitor, partial curve]
COc1ccccc1CNC(=O)c1cn(C)c(=O)c2cc(OC)c(OC)cc12 39.8 µM [fluorescent, side channel, single point]
O=C1N/C(=N\N=C\c2cccs2)SC1Cc1ccc(Cl)c(Cl)c1 (stereo unspecified) 3.55 µM [quencher, side channel, full curve]
CCN1CCN(c2nc(-c3ccccc3Cl)nc3ccccc23)CC1 39.8 µM [inhibitor, single point]
O=C(Cc1ccc(F)cc1)N1CCN(c2ccc([N+](=O)[O-])cc2)CC1 8.91 µM [inhibitor, single point]
COC(=O)CC(NC(=S)NC(=O)c1ccccc1)c1ccc(Br)cc1 (stereo unspecified) 28.2 µM [quencher, side channel, single point]
CN1CCN(c2ccc(NC(=O)c3ccc(-c4ccc(Br)cc4)o3)cc2)CC1 39.8 µM [quencher, side channel, single point]
CNC(=O)[C@@]1(Cc2ccccc2)C=C[C@@H](C)N1C(C)=O 39.8 µM [inhibitor, single point]
COc1ccc(C(=O)N=C2SC3CS(=O)(=O)CC3N2Cc2ccc(OC)c(OC)c2)cc1 (stereo unspecified) 25.1 µM [quencher, side channel, single point]
Nc1cc(-c2ccc(Cl)cc2)nn1-c1ccccc1 15.8 µM [quencher, side channel, partial curve]

Potency, inactive:
CC(C)NC(=O)C1CCN(C2CCN(Cc3nc4ccccc4s3)CC2)CC1
O=C(c1ccco1)N1CCN(C2CC(=O)N(c3ccc(F)c(Cl)c3)C2=O)CC1 (stereo unspecified)
CC(C)C[C@@H](CC(=O)N[C@@H](CCCN)CC(=O)N[C@@H]1CCNC[C@H]1C(=O)N[C@H](CC(=O)N[C@@H](CCC(=O)O)CC(=O)O)Cc1ccccc1)NC(=O)[C@@H]1CNCC[C@H]1N

Potency, active:
CC1=CC2=C(OC1N(C)C)c1cccc3cccc(c13)C2=O (stereo unspecified) 28.2 µM
